# From the supplement of paper PMC8728848
# This is one part of the list.
# B1: CvGal1 (Crassostrea virginica), A7Y0I5 (protein)
# chain: MTYQISKISQPFTSYIPNGLHIGKHLLLRGRVSYGTEAFAINLQQNPEPCNGEVAFHFNPRPGEQQCVRNSFDGGSWMDEERDQPHFPFDEGRSFTLRIEVAEEGFRTYVNGKPYVNFSHRLDLGNVHYLYLTEGAEFYDISYQDRYTLPYKSEIPQQMNVGKAVRIRGASQDNDGFSVNFACDPDNENCAFHFNPRPNEGVVVRNANLGGWGDEERDYEAEFPFHPYNYFDAMFICTDDKYLVHVNDKYFTEFNHRGGVDASSFFNIVGNLDIQDVEYFEPLEDDFVKTIPSGLVKGDVLIFRGFMKPGGDTFSINFMNGYSVEDDIAFHLNPRVGEGQVVMNCCMGGAWGDEEREDIPSPLADREPFEVKVVVKKNKFKVYVNGKKCMKFAARGNLEDIKGVNIKGEAYVYEVKLERKLEDSWEYLPGGFRVGGWVVVQAIPKKGSEGFAINFRTGSDEDSDIAFHFNPRLQENCTIRNSCAGGAWGGEERDQPDFPFEKKDTCEIAIQAQPDRFVTYVNGKRYIEFNHRLPLESITCVELTGRADFFEPKFF
# Assays:
# Assay in all cases: glycan array binding signal (z-score within array); higher = stronger binding
# Conditions in all cases: glycan notation: IUPAC condensed, linker removed
# [1] = target: GlcNAc(b1-3)Gal(b1-3)GalNAc
# How it was run: (§1)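 Glycan array data were curated from 3228 arrays in the Consortium for Functional Glycomics database and kept only where the protein sequence was available. Glycan names were converted to IUPAC-condensed notation, and columns mapping to the same glycan were averaged. The binding signal is a within-array Z-score, averaged across arrays of the same protein sequence at different concentrations or buffers and across linkers. Negative Z-scores can be read as non-binding.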
# GlcNAc(b1-3)Gal(b1-4)Glc = target: GlcNAc(b1-3)Gal(b1-4)Glc
# How it was run: as §1
# [2] = target: GlcNAc(b1-3)Gal(b1-4)GlcNAc
# How it was run: as §1
# [3] = target: GlcNAc(b1-3)Gal(b1-4)GlcNAc(b1-3)Gal(b1-4)GlcNAc
# How it was run: as §1
# GlcNAc(b1-3)GalNAc = target: GlcNAc(b1-3)GalNAc
# How it was run: as §1
# GlcNAc(b1-3)Man = target: GlcNAc(b1-3)Man
# How it was run: as §1
# [4] = target: GlcNAc(b1-3)[GlcNAc(b1-4)][GlcNAc(b1-6)]GlcNAc
# How it was run: as §1
# [5] = target: GlcNAc(b1-3)[GlcNAc(b1-6)]Gal(b1-4)GlcNAc
# How it was run: as §1
# [6] = target: GlcNAc(b1-3)[GlcNAc(b1-6)]GalNAc
# How it was run: as §1
# [7] = target: GlcNAc(b1-4)Gal(b1-4)GlcNAc
# How it was run: as §1
# GlcNAc(b1-4)GlcNAc = target: GlcNAc(b1-4)GlcNAc
# How it was run: as §1
# [8] = target: GlcNAc(b1-4)GlcNAc(b1-4)GlcNAc
# How it was run: as §1
# [9] = target: GlcNAc(b1-4)GlcNAc(b1-4)GlcNAc(b1-4)GlcNAc(b1-4)GlcNAc
# How it was run: as §1
# [10] = target: GlcNAc(b1-4)GlcNAc(b1-4)GlcNAc(b1-4)GlcNAc(b1-4)GlcNAc(b1-4)GlcNAc
# How it was run: as §1
# [11] = target: GlcNAc(b1-4)[GlcNAc(b1-6)]GalNAc
# How it was run: as §1
# [12] = target: GlcNAc(b1-6)Gal(b1-4)GlcNAc
# How it was run: as §1
# GlcNAc(b1-6)GalNAc = target: GlcNAc(b1-6)GalNAc
# How it was run: as §1
# GlcNAc3Prop(b1-4)GlcNAc = target: GlcNAc3Prop(b1-4)GlcNAc
# How it was run: as §1
# [13] = target: GlcNAc6S(b1-3)Gal(b1-4)GlcNAc
# How it was run: as §1
# Kdn(a2-3)Gal(b1-3)GalNAc = target: Kdn(a2-3)Gal(b1-3)GalNAc
# How it was run: as §1
# Kdn(a2-3)Gal(b1-3)GlcNAc = target: Kdn(a2-3)Gal(b1-3)GlcNAc
# How it was run: as §1
# Kdn(a2-3)Gal(b1-4)Glc = target: Kdn(a2-3)Gal(b1-4)Glc
# How it was run: as §1
# Kdn(a2-3)Gal(b1-4)GlcNAc = target: Kdn(a2-3)Gal(b1-4)GlcNAc
# How it was run: as §1
# [14] = target: Kdn(a2-3)Gal(b1-4)[Fuc(a1-3)]GlcNAc
# How it was run: as §1
# Kdn(a2-6)Gal(b1-4)GlcNAc = target: Kdn(a2-6)Gal(b1-4)GlcNAc
# How it was run: as §1
# [15] = target: Man(a1-2)Man(a1-2)Man(a1-3)Man
# How it was run: as §1
# [16] = target: Man(a1-2)Man(a1-2)Man(a1-6)[Man(a1-3)]Man
# How it was run: as §1
# Man(a1-2)Man(a1-3)Man = target: Man(a1-2)Man(a1-3)Man
# How it was run: as §1
# [17] = target: Man(a1-2)Man(a1-3)[Man(a1-2)Man(a1-6)]Man
# How it was run: as §1
# [18] = target: Man(a1-2)Man(a1-3)[Man(a1-2)Man(a1-6)]Man(a1-6)[Man(a1-2)Man(a1-2)Man(a1-3)]Man
# How it was run: as §1
binder,measurement,setting,value
B1,glycan array binding signal (z-score),[1],-0.283
same,glycan array binding signal (z-score),GlcNAc(b1-3)Gal(b1-4)Glc,-0.241
same,glycan array binding signal (z-score),[2],-0.268
same,glycan array binding signal (z-score),[3],-0.23
same,glycan array binding signal (z-score),GlcNAc(b1-3)GalNAc,-0.26
same,glycan array binding signal (z-score),GlcNAc(b1-3)Man,-0.293
same,glycan array binding signal (z-score),[4],-0.252
same,glycan array binding signal (z-score),[5],-0.244
same,glycan array binding signal (z-score),[6],-0.277
same,glycan array binding signal (z-score),[7],-0.274
same,glycan array binding signal (z-score),GlcNAc(b1-4)GlcNAc,-0.28
same,glycan array binding signal (z-score),[8],-0.295
same,glycan array binding signal (z-score),[9],-0.215
same,glycan array binding signal (z-score),[10],-0.248
same,glycan array binding signal (z-score),[11],-0.23
same,glycan array binding signal (z-score),[12],-0.285
same,glycan array binding signal (z-score),GlcNAc(b1-6)GalNAc,-0.293
same,glycan array binding signal (z-score),GlcNAc3Prop(b1-4)GlcNAc,-0.255
same,glycan array binding signal (z-score),[13],-0.25
same,glycan array binding signal (z-score),Kdn(a2-3)Gal(b1-3)GalNAc,-0.264
same,glycan array binding signal (z-score),Kdn(a2-3)Gal(b1-3)GlcNAc,-0.228
same,glycan array binding signal (z-score),Kdn(a2-3)Gal(b1-4)Glc,-0.279
same,glycan array binding signal (z-score),Kdn(a2-3)Gal(b1-4)GlcNAc,-0.262
same,glycan array binding signal (z-score),[14],-0.255
same,glycan array binding signal (z-score),Kdn(a2-6)Gal(b1-4)GlcNAc,-0.242
same,glycan array binding signal (z-score),[15],-0.249
same,glycan array binding signal (z-score),[16],-0.221
same,glycan array binding signal (z-score),Man(a1-2)Man(a1-3)Man,-0.265
same,glycan array binding signal (z-score),[17],-0.258
same,glycan array binding signal (z-score),[18],-0.242
